According to PubChem BioAssay AID2675 (National Center for Advancing Translational Sciences (NCATS), 2010):
The campaign covered roughly 280,000 compounds. About 100 (0.036%) were called active. The inconclusive results got no clear call from the source; some entries with a clear call stand among them for comparison. Calls come from the whole dose curve; as a rule, active = well fitted inhibition curve with a large enough effect in the signal ratio, with a control signal flat (not every such curve was filed as active); inconclusive = small, poorly fitted or top-dose-only effect, or effect the other way, or a change in a side signal; inactive = no such curve, though single readings can be large or run the other way; the % refers to the signal ratio. A potency beside an inconclusive call is a rough fit, not a confirmed value. “Side channel” marks fits to a control or component signal instead of the main read-out.
% is set by controls: 0 for no effect and ±100 for the full control effect; potency is the fitted concentration of half-maximal effect; tags give direction and shape of the fitted curve or compound fluorescence and quenching.

What follows are compounds tested against Muscleblind-like protein 1 (Homo sapiens) (UniProt Q9NR56) (assay: qHTS Assay for Inhibitors of MBNL1-poly(CUG) RNA binding). Conditions: TR-FRET MBNL1-His/biotin-(CUG)12 binding, 665/545 ratio; activity change, negative = inhibition: at 57.5 µM (top of the series).
Sequence of UniProt Q9NR56 (Q9NR56 whole entry, looked up): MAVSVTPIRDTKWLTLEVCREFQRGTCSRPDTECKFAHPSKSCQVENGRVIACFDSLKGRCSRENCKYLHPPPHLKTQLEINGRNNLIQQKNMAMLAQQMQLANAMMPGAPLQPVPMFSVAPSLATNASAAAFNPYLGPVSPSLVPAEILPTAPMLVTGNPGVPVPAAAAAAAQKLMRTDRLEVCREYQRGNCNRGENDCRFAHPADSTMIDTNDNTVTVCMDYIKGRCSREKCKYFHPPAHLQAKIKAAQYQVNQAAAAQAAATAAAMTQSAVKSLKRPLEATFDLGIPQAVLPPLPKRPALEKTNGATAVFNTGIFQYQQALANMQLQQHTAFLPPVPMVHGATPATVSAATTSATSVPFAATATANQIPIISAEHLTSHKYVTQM
How it was run: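 Compound titration spanned 92 nM–58 uM against the MBNL1-His/biotin-(CUG)12 complex. After 60 min at room temperature with 5 nM streptavidin-XL665 and 0.055 ng/ul terbium anti-His, ratiometric 665/545 nm emission (Ex 340 nm) normalized to controls.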
For `CCN1C(=O)c2cccc3c(S(=O)(=O)N4CCCC4C(=O)O)ccc1c23` (centres undefined), the Potency was inconclusive: 10 µM [quencher, side channel, partial curve]. With `CCOC(=O)c1sc(N2C(=O)C(O)=C(C(=O)c3ccco3)C2c2cccc([N+](=O)[O-])c2)nc1C` (centres undefined) the Potency was “inactive”. With `O=C(Cc1ccc([N+](=O)[O-])cc1)N1CCCc2ccccc21` the Potency was inconclusive: 22.4 µM [quencher, side channel, single point]. `CCNC(=O)COC(=O)/C=C/c1cccc([N+](=O)[O-])c1` was tested, and the Potency was inconclusive: 25.1 µM [quencher, side channel, partial curve]. `O=S(=O)(C(=CNc1ccccc1)S(=O)(=O)c1ccccc1)c1ccccc1` was tested, and the Potency was inconclusive: 0.1 µM [fluorescent, side channel, full curve, poor fit]. With `CSc1cccc(NC(=O)c2ccc(CN3CCc4ccccc4C3)cc2)c1` the Potency was “inactive”. For `COc1cc2c(cc1OC)-c1c(OC)c(OC)cc3ccnc(c13)C2=O`, the Potency was inconclusive: 2 µM [quencher, side channel, full curve]. In the case of `COc1ccc(-c2oc3ccccc3c(=O)c2OCC(=O)O)cc1`, the Potency is reported as inconclusive: 28.2 µM [quencher, side channel, single point]. In the case of `CC1CCC(NC(=O)COc2ccc(C(=O)c3ccccc3)cc2)CC1` (centres undefined), the Potency is reported as “inactive”. In the case of `Cc1cc(=O)oc2cc(OCCSCCN3CCCCC3)ccc12`, the Potency is reported as “inactive”. In the case of `O=c1[nH]cnc2sc(-c3ccccc3)cc12`, the Potency is reported as inconclusive: 20 µM [quencher, partial curve]. In the case of `O=C1/C(=C/c2cccnc2)CCc2c1[nH]c1ccccc21`, the Potency is reported as inconclusive: 14.1 µM [quencher, side channel, partial curve]. In the case of `COc1cc(/C=N/NC(=O)c2ccncc2)cc2c1OCO2`, the Potency is reported as inconclusive: 39.8 µM [quencher, single point]. For `Cc1ccccc1-c1nc(-c2cccnc2)no1`, the Potency was “inactive”. `Cc1ccc(SC(=O)c2c([N+](=O)[O-])c(C)nn2C)cc1` was tested, and the Potency was “inactive”. With `OCCN(CCO)c1ccc2ccccc2c1` the Potency was inconclusive: 28.2 µM [quencher, single point]. For `CCc1ccc(NC(=O)CCS(=O)(=O)c2cccc3nsnc23)cc1`, the Potency was inconclusive: 31.6 µM [quencher, side channel, partial curve]. For `CCCc1[nH][nH]c(=O)c1C(c1ccc(Br)cc1)C(C#N)C#N` (centres undefined), the Potency was “inactive”. In the case of `CC(C)CC(=O)N1CCN(c2ccc([N+](=O)[O-])cc2Cl)CC1`, the Potency is reported as inconclusive: 12.6 µM [quencher, side channel, partial curve, poor fit]. For `Cc1cc2nc3c(nc2cc1C)C(O)=C3O`, the Potency was inconclusive: 11.2 µM [quencher, side channel, partial curve]. With `Cc1ccc(-c2nnc(-n3nc(C)cc3C)c3ccccc23)cc1` the Potency was “inactive”. With `COc1ccc(CCC(C)NCc2cccc(Br)c2)cc1` (centres undefined) the Potency was “inactive”. In the case of `COc1ccc([N+](=O)[O-])cc1/C=N/NC(=O)/C(=C\c1cccs1)NC(=O)c1ccccc1`, the Potency is reported as inconclusive: 20 µM [quencher, side channel, partial curve]. In the case of `CC(=O)c1cc(C)ccc1OC(=O)CN1C(=O)c2ccccc2C1=O`, the Potency is reported as inconclusive: 31.6 µM [quencher, side channel, single point]. With `CCOC(=O)c1nnc(-c2cccs2)nc1Oc1ccc(Cl)cc1` the Potency was “inactive”. With `CCOC(=O)c1sc(Nc2nc3ccc(OC)cc3s2)cc1C` the Potency was “inactive”. In the case of `Cc1ccc2cc3c(N)c(C(=O)Nc4c(C)[nH]c(=O)[nH]c4=O)sc3nc2c1`, the Potency is reported as inconclusive: 10 µM [quencher, side channel, partial curve]. `CCOC(=O)C1(CC2CC2)CCN(Cc2ccc(O)c(Cl)c2)CC1` was tested, and the Potency was inconclusive: 100 µM [inhibitor, single point]. `Cn1cccc1CC(=O)N/N=C/c1ccco1` was tested, and the Potency was inconclusive: 25.1 µM [quencher, side channel, single point]. For `CC(=O)Oc1ccc(C(=O)Nc2ccc3c(c2)C(=O)N(CCC(=O)O)C3=O)cc1`, the Potency was inconclusive: 35.5 µM [quencher, side channel, single point]. With `CC(C1CC2CCC1C2)n1c(-c2ccco2)n[nH]c1=S` (centres undefined) the Potency was “inactive”. In the case of `CCOC(=O)C(=O)N1CCN(c2cc3c(cc2[N+](=O)[O-])n(C)c(=O)n3C)CC1`, the Potency is reported as inconclusive: 28.2 µM [quencher, side channel, partial curve]. With `CCOC(=O)c1ccc(NC(=S)NCCCN2CCN(C3CCCCC3)CC2)cc1` the Potency was inconclusive: 0.708 µM [quencher, side channel, single point]. With `C/C=C/C(=O)OCC(=O)Nc1cc([N+](=O)[O-])ccc1Cl` the Potency was inconclusive: 10 µM [quencher, side channel, partial curve]. `O/N=C/c1cccc[n+]1CCCCCC[n+]1ccccc1/C=N/O` was tested, and the Potency was inconclusive: 25.1 µM [quencher, side channel, partial curve]. `CCN(CC)c1ccc(C=Nc2ccccc2)c(O)c1` was tested, and the activity change, negative = inhibition was inconclusive: 26% [phenotype inactive]. `Cc1ccc2cc3cc(C(=O)NCCCN4CCCC4=O)oc3nc2c1` was tested, and the Potency was inconclusive: 15.8 µM [quencher, partial curve]. For `O=C(NC(C(=O)N/N=C/c1cc([N+](=O)[O-])ccc1O)c1n[nH]c(=O)c2ccccc12)c1ccccc1` (centres undefined), the Potency was inconclusive: 22.4 µM [quencher, side channel, single point]. `COc1ccc(-n2nnnc2S(=O)(=O)CC(=O)N2CCCCC2)cc1` was tested, and the Potency was “inactive”. `CCOC(=O)c1sc2nc(N3CCOCC3)c3c(c2c1N)CCC3` was tested, and the Potency was inconclusive: 12.6 µM [quencher, side channel, partial curve]. For `Cc1ccc(NC(=O)O/N=C/c2c(C)nn(C(C)(C)C)c2C)cc1Cl`, the Potency was “inactive”. With `CCOCCCN(C(=O)c1snc(C(N)=O)c1N)C(C(=O)NC1CCCC1)c1ccc(O)cc1` (centres undefined) the Potency was inconclusive: 10 µM [quencher, side channel, partial curve]. For `CCOc1ccccc1N1CCN(Cc2ccc(OC)c(OC)c2OC)CC1`, the Potency was inconclusive: 126 µM [inhibitor, single point]. `CC(=O)c1c(N2CCN(C)CC2)[nH]c(-c2ccccc2)nc1=S` was tested, and the Potency was “inactive”. `Cc1ccc2nc(Nc3ccccc3)c(/C=N/O)c(=O)n2c1` was tested, and the Potency was inconclusive: 10 µM [quencher, partial curve]. `COc1ccc(Nc2ccc([N+](=O)[O-])cn2)cn1` was tested, and the Potency was inconclusive: 15.8 µM [quencher, side channel, partial curve]. For `O=C(Nc1ccccc1Br)c1ccc2nccnc2c1`, the Potency was inconclusive: 20 µM [quencher, side channel, partial curve]. With `Cc1cccc(Nc2c([N+](=O)[O-])cc(C(=O)N3CC(=O)Nc4ccccc43)cc2[N+](=O)[O-])c1` the Potency was inconclusive: 17.8 µM [quencher, side channel, partial curve]. `COc1ccc2c(c1)c1nnc(SCC(=O)N3C(C)CCCC3C)nc1n2C` (centres undefined) was tested, and the Potency was inconclusive: 7.94 µM [quencher, side channel, full curve]. `N#CCCn1cc(C(=O)N2CCCCC2)c(-c2ccc([N+](=O)[O-])cc2)n1` was tested, and the Potency was inconclusive: 2.82 µM [quencher, side channel, full curve]. In the case of `CC(=O)Nc1ccc(NC(=O)COc2ccc([N+](=O)[O-])cc2)cc1`, the Potency is reported as inconclusive: 17.8 µM [quencher, side channel, single point]. `Cc1nc2c(cc1C(=O)N/N=C/c1ccc(O)c(O)c1)c(=O)n(C)c(=O)n2C` was tested, and the Potency was inconclusive: 39.8 µM [quencher, side channel, single point]. With `COCCn1c(SCC(=O)NCc2ccco2)nnc1-c1c[nH]c2ccccc12` the Potency was inconclusive: 39.8 µM [quencher, side channel, single point]. In the case of `COc1ccc(N2CCN(c3ncnc4scc(-c5ccc(C)cc5)c34)CC2)cc1`, the Potency is reported as “inactive”. In the case of `Cc1ccc(OCC(=O)c2cc(C)n(Cc3ccco3)c2C)c([N+](=O)[O-])n1`, the Potency is reported as inconclusive: 15.8 µM [quencher, side channel, partial curve]. With `NC(=S)NN=C1c2ccccc2-c2ccccc21` the Potency was “inactive”. With `C=CCNCCOc1cccc(Br)c1` the Potency was “inactive”. For `COC(=O)CNC(=O)CNC(=O)c1nn(-c2ccc(OC)c(Cl)c2)c(=O)c2ccccc12`, the Potency was inconclusive: 12.6 µM [quencher, side channel, partial curve]. For `Nn1cnnc1N/N=C\c1ccc(-c2ccccc2[N+](=O)[O-])o1`, the Potency was inconclusive: 22.4 µM [quencher, partial curve]. `Cc1ccc(C)c(Nc2ccc3nonc3c2[N+](=O)[O-])c1` was tested, and the Potency was inconclusive: 5.01 µM [quencher, side channel, partial curve]. For `O=C(CCNC(=O)c1ccc(Br)o1)NCc1ccc(Cl)cc1`, the Potency was “inactive”. With `COc1ccc(/C=C2\N=C3CCCN3C2=O)cc1` the Potency was inconclusive: 14.1 µM [quencher, side channel, partial curve]. In the case of `CSc1ccc(-c2nc(O)c3cnccn23)cc1`, the Potency is reported as inconclusive: 7.08 µM [quencher, side channel, partial curve]. In the case of `O=C1CC(c2ccc(Cl)cc2)n2nc(N3C(=O)CCC3=O)nc2N1` (centres undefined), the Potency is reported as inconclusive: 6.31 µM [fluorescent, side channel, single point].
